Test results from PubChem BioAssay (NCI).
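Test compounds were applied to cells in 96-well plates for 48 hours at 5 doses. The concentration for 50% growth inhibition is given as GI50. The concentration for full growth arrest is given as TGI.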

tested on: NCI-H322M lung; assay: NCI anticancer screen, dose series, 48 h

Row | Structure (SMILES) | TGI [µM] | GI50 [µM]
1 | COc1ccc(CN2C(=O)C(Cc3cc(OC)c(OC)c(C)c3OC)N(C(=O)OC(C)C)C(=O)/C2=C/c2cc(OC)c(OC)c(C)c2OC)cc1 (stereo not given) | > 100 | 
2 | COc1c(OC(C)=O)c(OC(C)=O)cc2c1-c1ccc(OC)c(=O)cc1C(NC(C)=O)CC2 (stereo not given) | > 27.3 | 
3 | Cc1ccc(Cl)cc1Nc1nc(C(F)(F)F)ccc1C(=O)N/N=C/c1c(Cl)cccc1Cl | 13.5 | 0.66
4 | Oc1ccc(-c2c3ccccc3c(-c3ccc(OCCBr)cc3)c3ccccc23)cc1 | 67.2 | 
5 | C[C@@H]1CCC2[C@@H](C)[C@H](O[C@H]3O[C@@H]4O[C@@]5(C)CCC6[C@H](C)CCC([C@H]3C)[C@]64OO5)O[C@@H]3O[C@@]4(C)CCC1[C@@]23OO4 (stereo not given in full) | 24 | 
6 | CCOC(=O)NC(=O)c1cn(CCCCCOC(=O)NCCCCCCNC(=O)OCCCCCn2cc(C(=O)NC(=O)OCC)c(=O)[nH]c2=O)c(=O)[nH]c1=O | > 100 | 
7 | COc1cc(C(=O)NC2CCN(C)CC2)ccc1Nc1ncc2c(n1)N(C1CCCC1)CC(F)(F)C(=O)N2C | 11.7 | 0.0776
8 | N#Cc1ccc(/C=N\N2C(=O)c3ccccc3C2=O)cc1 | > 100 | 
